# The other results are listed elsewhere or left out.
# Tests used:
# Assay in all cases: glycan array binding signal (z-score within array); higher = stronger binding
# Details in all cases: glycan notation: IUPAC condensed, linker removed
# [1] = target: Gal(a1-3)Gal(b1-4)GlcNAc(b1-3)GalNAc
# How it was run: (§1)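 Arrays were curated from the Consortium for Functional Glycomics database, 3228 in total, and kept only where the protein sequence was available. Binding is expressed as a within-array Z-score. This score was averaged across arrays of the same protein sequence at different concentrations or buffers and across linkers, and negative values can be read as non-binding.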
# [2] = target: Gal(a1-3)Gal(b1-4)[Fuc(a1-3)]GlcNAc
# How it was run: as §1
# [3] = target: Gal(a1-3)Gal(b1-4)[Fuc(a1-3)]GlcNAc(b1-2)Man(a1-3)[Gal(a1-3)Gal(b1-4)[Fuc(a1-3)]GlcNAc(b1-2)Man(a1-6)]Man(b1-4)GlcNAc(b1-4)GlcNAc
# How it was run: as §1
# Gal(a1-3)GalNAc = target: Gal(a1-3)GalNAc
# How it was run: as §1
# [4] = target: Gal(a1-3)[Gal(a1-4)]Gal(b1-4)GlcNAc
# How it was run: as §1
# [5] = target: Gal(a1-4)Gal(b1-3)GlcNAc(b1-2)Man(a1-3)[Gal(a1-4)Gal(b1-3)GlcNAc(b1-2)Man(a1-6)]Man(b1-4)GlcNAc(b1-4)GlcNAc
# How it was run: as §1
# Gal(a1-4)Gal(b1-4)Glc = target: Gal(a1-4)Gal(b1-4)Glc
# How it was run: as §1
# Gal(a1-4)Gal(b1-4)GlcNAc = target: Gal(a1-4)Gal(b1-4)GlcNAc
# How it was run: as §1
# [6] = target: Gal(a1-4)Gal(b1-4)GlcNAc(b1-2)Man(a1-3)[Gal(a1-4)Gal(b1-4)GlcNAc(b1-2)Man(a1-6)]Man(b1-4)GlcNAc(b1-4)GlcNAc
# How it was run: as §1
# [7] = target: Gal(a1-4)Gal(b1-4)GlcNAc(b1-3)Gal(b1-4)Glc
# How it was run: as §1
# Gal(a1-4)GlcNAc = target: Gal(a1-4)GlcNAc
# How it was run: as §1
# Gal(a1-6)Glc = target: Gal(a1-6)Glc
# How it was run: as §1
# Gal(b1-2)Gal = target: Gal(b1-2)Gal
# How it was run: as §1
# Gal(b1-3)Gal = target: Gal(b1-3)Gal
# How it was run: as §1
# Gal(b1-3)Gal(b1-4)GlcNAc = target: Gal(b1-3)Gal(b1-4)GlcNAc
# How it was run: as §1
# [8] = target: Gal(b1-3)Gal(b1-4)GlcNAc(b1-2)Man(a1-3)[Gal(b1-3)Gal(b1-4)GlcNAc(b1-2)Man(a1-6)]Man(b1-4)GlcNAc(b1-4)GlcNAc
# How it was run: as §1
# Gal(b1-3)GalNAc = target: Gal(b1-3)GalNAc
# How it was run: as §1
# [9] = target: Gal(b1-3)GalNAc(a1-3)[Fuc(a1-2)]Gal(b1-4)Glc
# How it was run: as §1
# [10] = target: Gal(b1-3)GalNAc(a1-3)[Fuc(a1-2)]Gal(b1-4)GlcNAc
# How it was run: as §1
# [11] = target: Gal(b1-3)GalNAc(b1-3)Gal(a1-4)Gal(b1-4)Glc
# How it was run: as §1
# [12] = target: Gal(b1-3)GalNAc(b1-4)Gal(b1-4)Glc
# How it was run: as §1
# [13] = target: Gal(b1-3)GalNAc(b1-4)[Neu5Ac(a2-3)]Gal(b1-4)Glc
# How it was run: as §1
# Gal(b1-3)GlcNAc = target: Gal(b1-3)GlcNAc
# How it was run: as §1
# [14] = target: Gal(b1-3)GlcNAc(a1-6)Gal(b1-4)GlcNAc
# How it was run: as §1
# [15] = target: Gal(b1-3)GlcNAc(b1-2)Man(a1-3)[Gal(b1-3)GlcNAc(b1-2)Man(a1-6)]Man(b1-4)GlcNAc(b1-4)GlcNAc
# How it was run: as §1
# [16] = target: Gal(b1-3)GlcNAc(b1-2)Man(a1-3)[Gal(b1-3)GlcNAc(b1-2)Man(a1-6)]Man(b1-4)GlcNAc(b1-4)[Fuc(a1-6)]GlcNAc
# How it was run: as §1
# [17] = target: Gal(b1-3)GlcNAc(b1-2)[Gal(b1-3)GlcNAc(b1-6)]Man(a1-6)[Gal(b1-3)GlcNAc(b1-2)Man(a1-3)]Man(b1-4)GlcNAc(b1-4)GlcNAc
# How it was run: as §1
# [18] = target: Gal(b1-3)GlcNAc(b1-3)Gal(b1-3)GlcNAc
# How it was run: as §1
# [19] = target: Gal(b1-3)GlcNAc(b1-3)Gal(b1-4)Glc
# How it was run: as §1
# [20] = target: Gal(b1-3)GlcNAc(b1-3)Gal(b1-4)GlcNAc
# How it was run: as §1
# [21] = target: Gal(b1-3)GlcNAc(b1-3)Gal(b1-4)GlcNAc(b1-6)[Gal(b1-3)GlcNAc(b1-3)]Gal(b1-4)Glc
# How it was run: as §1
# [22] = target: Gal(b1-3)GlcNAc(b1-3)Gal(b1-4)[Fuc(a1-3)]GlcNAc(b1-6)[Gal(b1-3)GlcNAc(b1-3)]Gal(b1-4)Glc
# How it was run: as §1
# [23] = target: Gal(b1-3)GlcNAc(b1-3)GalNAc
# How it was run: as §1
# [24] = target: Gal(b1-3)GlcNAc(b1-6)Gal(b1-4)GlcNAc
# How it was run: as §1
# [25] = target: Gal(b1-3)[Fuc(a1-4)]GlcNAc
# How it was run: as §1
# [26] = target: Gal(b1-3)[Fuc(a1-4)]GlcNAc(b1-2)Man(a1-3)[Gal(b1-3)[Fuc(a1-4)]GlcNAc(b1-2)Man(a1-6)]Man(b1-4)GlcNAc(b1-4)GlcNAc
# How it was run: as §1
# [27] = target: Gal(b1-3)[Fuc(a1-4)]GlcNAc(b1-2)Man(a1-3)[Gal(b1-3)[Fuc(a1-4)]GlcNAc(b1-2)Man(a1-6)]Man(b1-4)GlcNAc(b1-4)[Fuc(a1-6)]GlcNAc
# How it was run: as §1
# [28] = target: Gal(b1-3)[Fuc(a1-4)]GlcNAc(b1-3)Gal(b1-3)[Fuc(a1-4)]GlcNAc
# How it was run: as §1
binder,measurement,setting,value
Gal 9 (Canis lupus) (protein) MAFSSSQPPYLSPGVPFSGKIQGGLQDGLKITINGTILYCNGTRFAVNFHSGHSDSDIAFHFNPRFEEGGYVVCNTKQKGSWGSEERKMQMPFQMGNPFELCFMVNSCDFKVTVNGSHFTQYSHRVPFHYVDTLSITGAVQLSYISFQSPGVWQSSSAPITQTVIHTVQTTPGQPFPNPIIPPTAYPTPTYPMPFFTSIPGGLYPSKSIIVSGTVLPGAKRFHINLRSGNDIAFHLNPRFNENTVVRNMQINNSWGSEERSLPRKMPFVQGQSFSVWIMCEGHCFKVAVDGEHLFEYYHRLKNLLAINNMEVAGDVQLTHVQT,glycan array binding signal (z-score),[1],-0.01
same,glycan array binding signal (z-score),[2],-0.337
same,glycan array binding signal (z-score),[3],-0.257
same,glycan array binding signal (z-score),Gal(a1-3)GalNAc,-0.296
same,glycan array binding signal (z-score),[4],-0.334
same,glycan array binding signal (z-score),[5],-0.317
same,glycan array binding signal (z-score),Gal(a1-4)Gal(b1-4)Glc,-0.342
same,glycan array binding signal (z-score),Gal(a1-4)Gal(b1-4)GlcNAc,-0.337
same,glycan array binding signal (z-score),[6],-0.31
same,glycan array binding signal (z-score),[7],0.118
same,glycan array binding signal (z-score),Gal(a1-4)GlcNAc,-0.318
same,glycan array binding signal (z-score),Gal(a1-6)Glc,-0.333
same,glycan array binding signal (z-score),Gal(b1-2)Gal,-0.342
same,glycan array binding signal (z-score),Gal(b1-3)Gal,-0.066
same,glycan array binding signal (z-score),Gal(b1-3)Gal(b1-4)GlcNAc,0.213
same,glycan array binding signal (z-score),[8],0.18
same,glycan array binding signal (z-score),Gal(b1-3)GalNAc,-0.085
same,glycan array binding signal (z-score),[9],3.45
same,glycan array binding signal (z-score),[10],1.33
same,glycan array binding signal (z-score),[11],-0.083
same,glycan array binding signal (z-score),[12],0.007
same,glycan array binding signal (z-score),[13],0.047
same,glycan array binding signal (z-score),Gal(b1-3)GlcNAc,-0.179
same,glycan array binding signal (z-score),[14],-0.338
same,glycan array binding signal (z-score),[15],0.27
same,glycan array binding signal (z-score),[16],0.233
same,glycan array binding signal (z-score),[17],0.096
same,glycan array binding signal (z-score),[18],0.134
same,glycan array binding signal (z-score),[19],0.293
same,glycan array binding signal (z-score),[20],-0.001
same,glycan array binding signal (z-score),[21],0.153
same,glycan array binding signal (z-score),[22],0.143
same,glycan array binding signal (z-score),[23],0.034
same,glycan array binding signal (z-score),[24],-0.048
same,glycan array binding signal (z-score),[25],-0.336
same,glycan array binding signal (z-score),[26],-0.231
same,glycan array binding signal (z-score),[27],-0.287
same,glycan array binding signal (z-score),[28],-0.315

# — the supplement of paper PMC8728848
